Measurements reported in article PMC5892938.
The list shows a part of the results. At the low end of the ranking the order means little.

These sequences were tested against GST-SBP-SLBP (stem-loop binding protein) (UniProt Q14493) (assay: targeted RNA Bind-n-Seq). Settings: RBNS binding buffer: 25 mM Tris pH 7.5, 150 mM KCl, 3 mM MgCl2, 0.1% Tween, 0.5 mg/mL BSA, 1 mM DTT; 27 nM protein, 750 pM RNA pool; temperature not stated; high values mean tight binding.
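Further: DESeq read counts versus GST-SBP nonspecific binding control pulldown.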

Sequence | binding signal (log2 fold change)
GGUCACGUCUCAAUCAACUCUUCCCCCAGGGAAAACCCUGGCAAUGUCAACAGCUCGCAGUCAAG | -0.132
GGUCACGUCUCAAUCAACUCCUAAGAGGGGGGGAAAACCCCUUUACCCUCCAAAUCAACAGCUCGCAGUCAAG | -0.441
GGUCACGUCUCAAUCAACUCAUCCUCCAGGGAAAGCCCUGGUUUACUCAACAGCUCGCAGUCAAG | 0.136
GGUCACGUCUCAAUCAACUCUUCCUCCAGGGAAAACCCUGGUUUUUUCAACAGCUCGCAGUCAAG | -0.0774
GGUCACGUCUCAAUCAACUCUUUCUCCAGGGAAACCCCUGGCUAACUCAACAGCUCGCAGUCAAG | 0.228
GGUCACGUCUCAAUCAACUCUCAAGAGGGGGGGAAAACCCCUUUACCCUCCACUUCAACAGCUCGCAGUCAAG | 0.175
GGUCACGUCUCAAUCAACUCAUUCCCCAGGGAAAACCCUGGUUAUCUCAACAGCUCGCAGUCAAG | 0.152
GGUCACGUCUCAAUCAACUCUCCCGAGGGGGGGAAAACCCCUUUACCCUCACUAUCAACAGCUCGCAGUCAAG | 0.31
GGUCACGUCUCAAUCAACUCAUCCUCCAGGGAAAUCCCUGGUUUAUUCAACAGCUCGCAGUCAAG | 0.118
GGUCACGUCUCAAUCAACUCCUUAGAGGGGGGGAAAACCCCUUUGCCCUCGUAUUCAACAGCUCGCAGUCAAG | -0.227
GGUCACGUCUCAAUCAACUCAAUCCCAGGAGUUUCCUCCUGCUUAUUCAACAGCUCGCAGUCAAG | 0.0271
GGUCACGUCUCAAUCAACUCCUCCGAGGGGGGGAAAACCCCUUUACCCUCAUUCUCAACAGCUCGCAGUCAAG | -0.0397
GGUCACGUCUCAAUCAACUCUAACGAGGGGGGGAAAACCCCUUUACCCUCACACUCAACAGCUCGCAGUCAAG | 0.113
GGUCACGUCUCAAUCAACUCUAUCUCCAGGGAAACCCCUGGCAUUUUCAACAGCUCGCAGUCAAG | -0.0319
GGUCACGUCUCAAUCAACUCUUUUUCCAGGGAAAGCCCUGGCUAUCUCAACAGCUCGCAGUCAAG | 0.0415
GGUCACGUCUCAAUCAACUCUUCCCCAGGAGUUUUCUCCUGUUUACUCAACAGCUCGCAGUCAAG | 0.0444
GGUCACGUCUCAAUCAACUCAUUCUCCAGGGAAAGCCCUGGCAAAUUCAACAGCUCGCAGUCAAG | -0.0502
GGUCACGUCUCAAUCAACUCUCUAGAGGGGGGGAAAACCCCUUUGCCCUCGAUAUCAACAGCUCGCAGUCAAG | -0.366
GGUCACGUCUCAAUCAACUCAUUUUCCAGGGAAAGCCCUGGUAUUCUCAACAGCUCGCAGUCAAG | 0.0667
GGUCACGUCUCAAUCAACUCUUUUCCAGGAGUUUACUCCUGUUAUCUCAACAGCUCGCAGUCAAG | -0.0157
GGUCACGUCUCAAUCAACUCAAUCGAGGGGGGGAAAACCCCUUUACCCUCACUAUCAACAGCUCGCAGUCAAG | -0.0652
GGUCACGUCUCAAUCAACUCAUUUCCCAGGGAAAUCCCUGGCAAUUUCAACAGCUCGCAGUCAAG | 0.128
GGUCACGUCUCAAUCAACUCCACGGAGGGGGGGAAAACCCCUUUACCCUCAUCAUCAACAGCUCGCAGUCAAG | -0.216
GGUCACGUCUCAAUCAACUCUAUCCCAGGAGUUUACUCCUGCUUAUUCAACAGCUCGCAGUCAAG | 0.00902
GGUCACGUCUCAAUCAACUCUAUUCCCAGGGAAAUCCCUGGUUAUCUCAACAGCUCGCAGUCAAG | -0.162

Sequence | binding signal (log2 fold change)
GGUCACGUCUCAAUCAACUCAAAAGAGGGGGGGAAAACCCCUUUGCCCUCCAUAUCAACAGCUCGCAGUCAAG | -0.456
GGUCACGUCUCAAUCAACUCUACUCCAGGAGUUUCCUCCUGUAUUUUCAACAGCUCGCAGUCAAG | -0.0512
GGUCACGUCUCAAUCAACUCUAUAGAGGGGGGGAAAACCCCUUUACCCUCAACCUCAACAGCUCGCAGUCAAG | -0.111
GGUCACGUCUCAAUCAACUCUUUUUCCAGGGAAAACCCUGGUAAUCUCAACAGCUCGCAGUCAAG | -0.00515
GGUCACGUCUCAAUCAACUCUUCGUCAGGAGUUUCCUCCUGCUUUUUCAACAGCUCGCAGUCAAG | 0.0524
GGUCACGUCUCAAUCAACUCUACUUCCAGGGAAACCCCUGGCUAUUUCAACAGCUCGCAGUCAAG | -0.0686
GGUCACGUCUCAAUCAACUCAAUCUCAGGAGUUUCCUCCUGUAUUCUCAACAGCUCGCAGUCAAG | 0.194
GGUCACGUCUCAAUCAACUCUUUCGCCAGGGAAAACCCUGGGUAUUUCAACAGCUCGCAGUCAAG | -0.138
GGUCACGUCUCAAUCAACUCUUUUCCAGGAGUUUACUCCUGCAAAUUCAACAGCUCGCAGUCAAG | 0.0235
GGUCACGUCUCAAUCAACUCAAUUUCCAGGGAAACCCCUGGCAUAUUCAACAGCUCGCAGUCAAG | 0.067
GGUCACGUCUCAAUCAACUCAUUUCCCAGGGAAACCCCUGGCAAUUUCAACAGCUCGCAGUCAAG | -0.12
GGUCACGUCUCAAUCAACUCAAUUCCCAGGGAAAACCCUGGUAUACUCAACAGCUCGCAGUCAAG | -0.295
GGUCACGUCUCAAUCAACUCCUUCGAGGGGGGGAAAACCCCUUUACCCUCUCCAUCAACAGCUCGCAGUCAAG | -0.463
GGUCACGUCUCAAUCAACUCAAGGUCAGGAGUUUUCUCCUGCAAAUUCAACAGCUCGCAGUCAAG | 0.245
GGUCACGUCUCAAUCAACUCAAUCCCAGGAGUUUACUCCUGUUUACUCAACAGCUCGCAGUCAAG | 0.0607
GGUCACGUCUCAAUCAACUCAUCCCCAGGAGUUUACUCCUGCUUUCUCAACAGCUCGCAGUCAAG | 0.061
GGUCACGUCUCAAUCAACUCAUUCUCAGGAGUUUACUCCUGUUAACUCAACAGCUCGCAGUCAAG | 0.16
GGUCACGUCUCAAUCAACUCAUUCCCAGGAGUUUUCUCCUGUAUACUCAACAGCUCGCAGUCAAG | -0.188
GGUCACGUCUCAAUCAACUCUCUAGAGGGGGGGAAAACCCCUUUGCCCUCACCAUCAACAGCUCGCAGUCAAG | -0.583
GGUCACGUCUCAAUCAACUCUACUCCAGGAGUUUUCUCCUGUUUAUUCAACAGCUCGCAGUCAAG | -0.0432
GGUCACGUCUCAAUCAACUCUUUCCCCAGGGAAAUCCCUGGUAUACUCAACAGCUCGCAGUCAAG | 0.136
GGUCACGUCUCAAUCAACUCUAUCCCCAGGGAAAUCCCUGGUUAACUCAACAGCUCGCAGUCAAG | -0.0887
GGUCACGUCUCAAUCAACUCAUUUUCAGGAGUUUACUCCUGUUUACUCAACAGCUCGCAGUCAAG | 0.166
GGUCACGUCUCAAUCAACUCAAUAGAGGGGGGGAAAACCCCUUUACCCUCAAAUUCAACAGCUCGCAGUCAAG | -0.123
GGUCACGUCUCAAUCAACUCAACGCCAGGAGUUUUCUCCUGUUAUUUCAACAGCUCGCAGUCAAG | -0.112

Sequence | binding signal (log2 fold change)
GGUCACGUCUCAAUCAACUCUACUUCCAGGGAAAUCCCUGGUAAUCUCAACAGCUCGCAGUCAAG | 0.135
GGUCACGUCUCAAUCAACUCUACUCCCAGGGAAAGCCCUGGCAAUUUCAACAGCUCGCAGUCAAG | 0.1
GGUCACGUCUCAAUCAACUCUAGUCCCAGGGAAAACCCUGGCAAAUUCAACAGCUCGCAGUCAAG | -0.0666
GGUCACGUCUCAAUCAACUCAUUUCCCAGGGAAAACCCUGGUUAUUUCAACAGCUCGCAGUCAAG | 0.0871
GGUCACGUCUCAAUCAACUCCUUAGAGGGGGGGAAAACCCCUUUACCCUCAUACUCAACAGCUCGCAGUCAAG | -0.325
GGUCACGUCUCAAUCAACUCUUCUUCAGGAGUUUUCUCCUGUUUUCUCAACAGCUCGCAGUCAAG | 0.00641
GGUCACGUCUCAAUCAACUCAUUCCCCAGGGAAAGCCCUGGUUUACUCAACAGCUCGCAGUCAAG | -0.072
GGUCACGUCUCAAUCAACUCCUUAGAGGGGGGGAAAACCCCUUUGCCCUCAUACUCAACAGCUCGCAGUCAAG | 0.464
GGUCACGUCUCAAUCAACUCUACUCCCAGGGAAAUCCCUGGUUUAUUCAACAGCUCGCAGUCAAG | 0.121
GGUCACGUCUCAAUCAACUCUUCCCCCAGGGAAAGCCCUGGUAAAUUCAACAGCUCGCAGUCAAG | -0.0772
GGUCACGUCUCAAUCAACUCUCCAGAGGGGGGGAAAACCCCUUUACCCUCACUAUCAACAGCUCGCAGUCAAG | 0.294
GGUCACGUCUCAAUCAACUCAUCUCCCAGGGAAAUCCCUGGUAAACUCAACAGCUCGCAGUCAAG | 0.123
GGUCACGUCUCAAUCAACUCAAUCCCCAGGGAAAGCCCUGGCUAACUCAACAGCUCGCAGUCAAG | -0.0761
GGUCACGUCUCAAUCAACUCAUCCCCCAGGGAAAUCCCUGGCUUUCUCAACAGCUCGCAGUCAAG | -0.0283
GGUCACGUCUCAAUCAACUCAAUUCCAGGAGUUUCCUCCUGCUUACUCAACAGCUCGCAGUCAAG | 0.229
GGUCACGUCUCAAUCAACUCUUCGCCCAGGGAAACCCCUGGUUAUCUCAACAGCUCGCAGUCAAG | -0.108
GGUCACGUCUCAAUCAACUCAAUCCCAGGAGUUUUCUCCUGCAUUCUCAACAGCUCGCAGUCAAG | 0.283
GGUCACGUCUCAAUCAACUCCAUAGAGGGGGGGAAAACCCCUUUGCCCUCCAAAUCAACAGCUCGCAGUCAAG | -0.171
GGUCACGUCUCAAUCAACUCAAAAGAGGGGGGGAAAACCCCUUUGCCCUCAUCAUCAACAGCUCGCAGUCAAG | -0.177
GGUCACGUCUCAAUCAACUCUUUCUCAGGAGUUUCCUCCUGCUUACUCAACAGCUCGCAGUCAAG | 0.271
GGUCACGUCUCAAUCAACUCUCACGAGGGGGGGAAAACCCCUUUACCCUCAUUAUCAACAGCUCGCAGUCAAG | -0.253
GGUCACGUCUCAAUCAACUCUUCUUCCAGGGAAAUCCCUGGUUAUGUCAACAGCUCGCAGUCAAG | -0.0129
GGUCACGUCUCAAUCAACUCUAUCUCAGGAGUUUCCUCCUGUUUAUUCAACAGCUCGCAGUCAAG | -0.0312
GGUCACGUCUCAAUCAACUCAAUCCCAGGAGUUUACUCCUGUUUUCUCAACAGCUCGCAGUCAAG | -0.22
